From paper PMC4336329 (PLoS ONE, 2015) come the findings set out here.

Hit rate of the full screen: of about 310,000 compounds, about 2,200 (0.71%) showed an effect of 50% or more. Effects have a minus sign here. Some of the results follow.

For the test, the target named is human ether-à-go-go-related gene (hERG) potassium channel (human, UniProt Q12809). The test is described as follows: primary screen, population patch clamp on CHO cells stably expressing hERG.
human ether-à-go-go-related gene (hERG) potassium channel, sequence (Q12809 whole entry, looked up): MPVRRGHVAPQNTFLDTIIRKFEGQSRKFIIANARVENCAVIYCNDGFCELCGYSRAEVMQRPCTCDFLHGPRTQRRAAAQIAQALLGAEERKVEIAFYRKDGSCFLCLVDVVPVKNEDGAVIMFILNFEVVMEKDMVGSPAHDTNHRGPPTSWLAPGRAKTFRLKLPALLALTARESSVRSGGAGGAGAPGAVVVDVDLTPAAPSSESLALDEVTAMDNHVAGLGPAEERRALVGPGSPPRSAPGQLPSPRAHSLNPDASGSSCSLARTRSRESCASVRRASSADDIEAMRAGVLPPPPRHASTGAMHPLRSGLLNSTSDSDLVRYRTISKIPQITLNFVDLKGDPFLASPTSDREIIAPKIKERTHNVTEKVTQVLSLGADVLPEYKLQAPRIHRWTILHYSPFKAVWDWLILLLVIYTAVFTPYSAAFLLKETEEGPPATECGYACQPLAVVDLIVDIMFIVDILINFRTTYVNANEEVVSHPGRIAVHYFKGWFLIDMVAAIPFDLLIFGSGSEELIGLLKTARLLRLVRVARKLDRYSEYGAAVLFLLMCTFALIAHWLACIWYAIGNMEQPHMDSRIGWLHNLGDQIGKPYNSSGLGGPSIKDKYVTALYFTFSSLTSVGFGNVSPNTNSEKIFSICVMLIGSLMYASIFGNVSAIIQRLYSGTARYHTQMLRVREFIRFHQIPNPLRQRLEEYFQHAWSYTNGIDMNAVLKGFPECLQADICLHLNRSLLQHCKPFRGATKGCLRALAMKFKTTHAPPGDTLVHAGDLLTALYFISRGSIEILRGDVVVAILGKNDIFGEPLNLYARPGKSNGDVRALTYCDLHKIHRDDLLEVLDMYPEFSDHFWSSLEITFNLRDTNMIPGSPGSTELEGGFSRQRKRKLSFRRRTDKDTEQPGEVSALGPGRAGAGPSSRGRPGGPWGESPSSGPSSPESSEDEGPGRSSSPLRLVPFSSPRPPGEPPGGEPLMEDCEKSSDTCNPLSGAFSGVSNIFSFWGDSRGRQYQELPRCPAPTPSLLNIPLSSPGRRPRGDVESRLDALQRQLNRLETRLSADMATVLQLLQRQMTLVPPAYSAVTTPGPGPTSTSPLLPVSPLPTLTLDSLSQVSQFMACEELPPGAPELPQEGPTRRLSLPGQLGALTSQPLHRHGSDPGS
In the case of `COc1ccc(OC)c(C2NC(=S)NC3=C2N2CCC3CC2)c1` (stereo not shown), the “hERG current change (%, negative = inhibition) at 1uM” value was found to be 12.3%. In the case of `COc1ccccc1N1CCN(S(=O)(=O)c2cn(C)c(=O)n(C)c2=O)CC1`, the “hERG current change (%, negative = inhibition) at 1uM” value is recorded as 13.3%. On to `C=CCn1c(C)cc(-c2csc(N)n2)c1C.Cl`, for which the “hERG current change (%, negative = inhibition) at 1uM” value turned out to be 4%. The same measure for `CN(C(=O)c1cccnc1)c1nnc(-c2cnccn2)s1`: 9.84%. The value for `CCN1CCN(CC(=O)Nc2cccc(C)c2)C(=O)C1=O` was 14.7%; that for `CCN(C(=O)C(C)Cl)c1ccccc1` (stereo not shown) was 12.8%; that for `N#Cc1c(N)nc2c(c1N)CC(COc1ccccc1)O2` (stereo not shown) was 2.9%. Regarding `COc1ccccc1OCCn1c(SCC(N)=O)nc2ccccc21`, the “hERG current change (%, negative = inhibition) at 1uM” value is recorded as 10.5%. As for `O=C(NCCSCc1ccco1)Nc1cc(Cl)cc(Cl)c1`, the “hERG current change (%, negative = inhibition) at 1uM” value turned out to be 16.8%. The same measure for `Clc1cccc(Cl)c1/C=N/Nc1c(Cl)cncc1Cl`: 5.36%.

Turning to `O=C(Nc1cccc2nsnc12)c1ccc(F)cc1`, the “hERG current change (%, negative = inhibition) at 1uM” value came to 0.596%. The same measure for `O=C(CSCCS(=O)(=O)c1ccc(Cl)cc1)Nc1ccccc1`: 8.86%. The value for `COc1ccc(NC(=O)c2cc(S(=O)(=O)N3CCCC3)c[nH]2)cc1` was 17.5%; that for `CC(C)(C)NC(=O)CSc1nnc(CN2CCCCCC2=O)n1-c1ccccn1` was 6.12%; that for `Cc1ccc(C(=O)NCC(=O)OCC(=O)NC(C)c2ccccc2)s1` (stereo not shown) was 2.94%. The same measure for `COc1ccc(CCN2CC(C(=O)NCc3ccccc3)CCC2=O)cc1` (stereo not shown): 10.7%; for `O=C(CSc1ncnc2sc3c(c12)CCC3)NCC1CCCO1` (stereo not shown): 14.1%; for `COc1cccc(OC)c1-c1nn2c(-c3ccco3)nnc2s1`: 3.07%.

As to `CN(CC(=O)Nc1ccccc1Br)C(=O)c1cccc([N+](=O)[O-])c1`, the “hERG current change (%, negative = inhibition) at 1uM” value stood at 0.512%. The same measure for `COCCNC(=O)c1onc(CSc2ccccc2)c1C(=O)NCCOC`: 10.5%; for `O=C(N/N=C1\CC2CC=CC12)c1ccc(O)cc1` (stereo not shown): 10.2%; for `CCOC(=O)N1CCC(NC(=O)CSCc2nc(-c3cccc(OC)c3)oc2C)CC1`: -4.02%.

`Cc1ccc(-c2nc3ccccc3c(=O)n2CCN2CCOCC2)cc1`: the “hERG current change (%, negative = inhibition) at 1uM” value is -4.88%. The value for `O=C(NCCc1ccc(Cl)cc1)C1CCN(S(=O)(=O)c2ccc(Br)s2)CC1` was 3.54%. The value for `O=C(COc1ccc(C(=S)N2CCCC2)cc1)Nc1ccccc1C(F)(F)F` was 4.01%; that for `CCOC(=O)c1ccc(NC(=O)NNC(=O)CCc2ccc(OC)cc2)cc1` was 16.8%; that for `NS(=O)(=O)c1ccc(CNS(=O)(=O)c2ccc3c(c2)OCCO3)cc1` was 4.59%. Regarding `S=c1nc[nH]c2c1cnn2Cc1ccccc1`, the “hERG current change (%, negative = inhibition) at 1uM” value was 17.9%.

For `O=C(Cc1ccccc1)Nc1ccccc1Sc1ccccc1`, the “hERG current change (%, negative = inhibition) at 1uM” value amounted to 7.77%. For the compound `COc1ccc(CNc2cc(C)nc3ccc(OC)cc23)cc1`, the “hERG current change (%, negative = inhibition) at 1uM” value is -18.9%. The same measure for `Clc1ccc(N2CCN(c3ncnc4c3oc3ccccc34)CC2)cc1`: 12.2%. The same measure for `N#Cc1c(-c2ccco2)cc(-c2cccnc2)nc1N`: 7.62%. Regarding `CC(Sc1nnc(-c2cccs2)n1Cc1ccccc1)C(=O)NCc1ccc2c(c1)OCO2` (stereo not shown), the “hERG current change (%, negative = inhibition) at 1uM” value is reported as 0.773%. The value for `C=C(C)c1cccc(C(C)(C)NC(=O)Nc2ccc(C(N)=O)cc2)c1` was 7.17%. The value for `COC(=O)C1=NN(c2ccccc2)C2(S1)SC(C(C)=O)=C(C)N2c1ccccc1` (stereo not shown) was -13.5%; that for `C[C@@H]1O[C@@H]1P(=O)([O-])[O-].[Na+]` was 12.8%. The same measure for `O=[N+]([O-])c1cc(-c2cnc3ccccc3n2)ccc1Oc1ccc(Br)cc1`: -12.1%; for `CCOC(=O)N1CCC(Nc2c(NCCCN3CCN(CC)CC3)c(=O)c2=O)CC1`: 8.96%. In the case of `COc1ccc(OC)c(NC(=O)N2CCCC(C)C2)c1` (stereo not shown), the “hERG current change (%, negative = inhibition) at 1uM” value is reported as 4.69%.

Turning to `CC(C)c1ccc(CN2C(=O)NC3(CCCCCC3)C2=O)cc1`, the “hERG current change (%, negative = inhibition) at 1uM” value turned out to be 8.36%. The value for `CN(C)CCCNC(=O)c1cc(C(=O)c2c(Cl)cccc2Cl)c[nH]1` was 1.8%; that for `CCOc1ccc(C(=O)/C=C/Nc2ccc(S(=O)(=O)Nc3cc(C)nc(C)n3)cc2)cc1` was 8.37%. `CC(C)(C)NC(=O)NC(=O)CN1CCCCCCC1`: the “hERG current change (%, negative = inhibition) at 1uM” value stood at 10.7%. `COc1c(F)c(F)c(C(=O)Nc2ccccc2N2CCN(C(C)=O)CC2)c(F)c1F`: the “hERG current change (%, negative = inhibition) at 1uM” value is 1.21%. The same measure for `Cc1ccc(S(=O)(=O)Nc2ccc3c(c2)n(C)c(=O)n3C)cc1`: -4.59%; for `CCOc1cc(S(=O)(=O)NCC2CCCO2)ccc1F` (stereo not shown): 14.7%. As to `C=CCS/C(N)=N\N=C\c1cc(Br)cc([N+](=O)[O-])c1O`, the “hERG current change (%, negative = inhibition) at 1uM” value is recorded as 11%. Consider `CC1(C)CC[C@]2(C(=O)O)CC[C@]3(C)C(=CCC4[C@@]5(C)CC[C@H](O)C(C)(C)C5CC[C@]43C)C2C1` (stereo partly shown), for which the “hERG current change (%, negative = inhibition) at 1uM” value was 16.8%. As to `C=CCN(C(=O)c1ccc2c(c1)nnn2C)c1ccccc1`, the “hERG current change (%, negative = inhibition) at 1uM” value was 8.05%. Take `COc1ccc(CCNC(=O)c2cnc3n(c2=O)CCS3)cc1OC`: the “hERG current change (%, negative = inhibition) at 1uM” value is reported as 4.64%. On to `COc1cccc(C2=NCCc3cc4c(cc32)OCO4)c1OC`, for which the “hERG current change (%, negative = inhibition) at 1uM” value was determined as 10.5%.

Turning to `CCCCCCSc1nc(O)c(C2OC(=O)c3c2ccc(OC)c3OC)c(=O)n1CC` (stereo not shown), the “hERG current change (%, negative = inhibition) at 1uM” value worked out at 13.4%. The same measure for `CCc1c(O)nc(N2CCN(Cc3ccccc3)CC2)[nH]c1=O`: 5%; for `Cc1ccc(S(=O)(=O)N(CCO)c2cc3c(s2)CCCC3)cc1`: 6%. The same measure for `CCCC(=O)Nc1cc(-c2nn(C)c(=O)c3ccccc23)ccc1N1CCCCC1`: -15.2%; for `O=C(CSCc1ccc(Cl)cc1)Nc1nccs1`: 7%. The same measure for `Cc1ccccc1CSCC(=O)NCCSc1ccccn1`: 9.46%. Regarding `Cc1ccc(CNC(=O)C2CC(=O)N(c3ccc(OCC(=O)N4CCCC4)cc3)C2)cc1` (stereo not shown), the “hERG current change (%, negative = inhibition) at 1uM” value was 19%. On to `C=CCN1CCN(C(c2ccccc2OC)c2nnnn2C(C)(C)C)CC1.Cl` (stereo not shown), for which the “hERG current change (%, negative = inhibition) at 1uM” value was 8.65%. For the compound `CCN(CC)S(=O)(=O)c1ccc2c(c1)nc(SCC(=O)N1CCOCC1)n2-c1ccccc1OC`, the “hERG current change (%, negative = inhibition) at 1uM” value is given as 3.53%. Consider `Cc1ccc(S(=O)(=O)N2CCN(c3ccc(N4CCOCC4)nn3)CC2)cc1[N+](=O)[O-]`, for which the “hERG current change (%, negative = inhibition) at 1uM” value was 4.85%. The same measure for `CN(C)c1ccc(/C=N/Nc2nncc3ccccc23)cc1`: 13.9%; for `O=C(Nc1ccc(Cl)cn1)c1cccc2c(Br)cccc12`: 4.32%. For the compound `CC(C)=C1C2CCC1C1C(=O)N(c3nc(-c4ccc(F)cc4)c(C)s3)C(=O)C21` (stereo not shown), the “hERG current change (%, negative = inhibition) at 1uM” value turned out to be 8.65%. Consider `CC(C)N1CC(COc2ccccc2Cl)OC1=O` (stereo not shown), for which the “hERG current change (%, negative = inhibition) at 1uM” value is recorded as 9.29%.

For the compound `Cc1ccc2nc(-c3ccc(NC(=O)CSCC(=O)O)cc3)sc2c1`, the “hERG current change (%, negative = inhibition) at 1uM” value amounted to 10.9%. Regarding `COc1ccc(N(CCCN2C(=O)c3cccc4cccc(c34)C2=O)C(=O)c2cccnc2)cc1`, the “hERG current change (%, negative = inhibition) at 1uM” value worked out at 6.64%.

Take `O=C(CCNC(=O)c1ccccc1Cl)NCc1cccnc1`: the “hERG current change (%, negative = inhibition) at 1uM” value was 6.98%. Regarding `COc1ccc(/C=C/C(=O)NC(=S)NNC(=O)[C@H]2C[C@@H]2c2ccccc2)cc1OC`, the “hERG current change (%, negative = inhibition) at 1uM” value came to 12.6%. The value for `CCC(CC)n1[nH]c(=O)c2c(C)cc(C)nc21` was 9.03%; that for `Cc1cc(C)cc(C(=O)NCC(=O)OCc2cc([N+](=O)[O-])cc3c2OCOC3)c1` was 2.64%; that for `Cc1cccc(CSCCNC(=O)CSCc2ccc([N+](=O)[O-])cc2)c1` was -7.73%. As to `O=C(Nc1cc([N+](=O)[O-])ccc1N1CCCC1)c1ccco1`, the “hERG current change (%, negative = inhibition) at 1uM” value is -4.14%. As to `O=C1CCCc2c1sc1nc3n(c(=O)c21)CCCCC3`, the “hERG current change (%, negative = inhibition) at 1uM” value is recorded as 11.7%. The same measure for `O=C(CS(=O)CC(=O)N(CC(=O)NC1CCCC1)c1ccccc1F)Nc1ccc(F)cc1` (stereo not shown): 15.6%; for `COc1ccc(NC(=O)c2cccc(N3C(=O)C4C5CCC(C5)C4C3=O)c2)cc1` (stereo not shown): 16.8%; for `COCCN1CCN(C(=O)C2CCC(=O)N(CCc3cccc(F)c3)C2)CC1` (stereo not shown): 2.31%. The value for `Cc1nn(-c2ccccc2)c2[nH]c(=O)cc(C(F)F)c12` was 10.7%; that for `C=CCn1c(Cc2csc(N)n2)nnc1SCC(=O)Nc1ccc(C(=O)OCC)cc1` was 4.85%; that for `CC(/C=C/c1ccccc1F)=N\NC(=O)c1ccccc1` was 7.5%.

With `CN(C1CCCCC1)S(=O)(=O)c1cn(C)c(=O)n(C)c1=O`, the “hERG current change (%, negative = inhibition) at 1uM” value turned out to be 9.96%. In the case of `O=C(c1cccc(NS(=O)(=O)c2ccccc2)c1)N1CCN(c2ccccc2)CC1`, the “hERG current change (%, negative = inhibition) at 1uM” value was determined as 12.9%.

For the compound `Cc1ccc(C(=O)N/C(=C\c2ccccc2)C(=O)NCCCn2ccnc2)cc1`, the “hERG current change (%, negative = inhibition) at 1uM” value was -87%. The same measure for `Oc1ccc(/C=N/n2c3ccccc3c3ccccc32)cc1`: 2.42%. Take `CCCCOC(=O)/C=C\C(=O)NC(N)=O`: the “hERG current change (%, negative = inhibition) at 1uM” value worked out at 14%. The value for `COc1ccc(NC(=S)NC(=O)C2CCCCC2)cc1` was 3.06%. In the case of `O=C(Nc1cc(Br)ccc1O)c1cc(-c2ccc3c(c2)OCO3)on1`, the “hERG current change (%, negative = inhibition) at 1uM” value worked out at 6.96%. The value for `O=C1CC(c2ccc(O)cc2)Oc2cc(O)ccc21` (stereo not shown) was 12%; that for `COc1ccc(-c2nnn(CC(=O)c3c[nH]c4ccccc34)n2)cc1OC` was 5.24%. The value for `CC(C)Oc1ccccc1/C=N/NC(=O)c1ccc(F)cc1` was 1.35%. The same measure for `Cc1ccc(C2(c3ccc(C)cc3)NC(=O)N(Cc3c(C)noc3C)C2=O)cc1`: -2.1%.
